Hit rate of the full screen: of about 310,000 compounds, about 14,000 (4.5%) showed an effect of 50% or more. Effects have a minus sign here. Some of the results follow.
What follows are compounds tested against human ether-à-go-go-related gene (hERG) potassium channel (human, UniProt Q12809) (assay: primary screen, population patch clamp on CHO cells stably expressing hERG).
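Note: peak tail current of the secondary pulse compared with the same well before compound.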

Chain of human ether-à-go-go-related gene (hERG) potassium channel (Q12809 whole entry, looked up): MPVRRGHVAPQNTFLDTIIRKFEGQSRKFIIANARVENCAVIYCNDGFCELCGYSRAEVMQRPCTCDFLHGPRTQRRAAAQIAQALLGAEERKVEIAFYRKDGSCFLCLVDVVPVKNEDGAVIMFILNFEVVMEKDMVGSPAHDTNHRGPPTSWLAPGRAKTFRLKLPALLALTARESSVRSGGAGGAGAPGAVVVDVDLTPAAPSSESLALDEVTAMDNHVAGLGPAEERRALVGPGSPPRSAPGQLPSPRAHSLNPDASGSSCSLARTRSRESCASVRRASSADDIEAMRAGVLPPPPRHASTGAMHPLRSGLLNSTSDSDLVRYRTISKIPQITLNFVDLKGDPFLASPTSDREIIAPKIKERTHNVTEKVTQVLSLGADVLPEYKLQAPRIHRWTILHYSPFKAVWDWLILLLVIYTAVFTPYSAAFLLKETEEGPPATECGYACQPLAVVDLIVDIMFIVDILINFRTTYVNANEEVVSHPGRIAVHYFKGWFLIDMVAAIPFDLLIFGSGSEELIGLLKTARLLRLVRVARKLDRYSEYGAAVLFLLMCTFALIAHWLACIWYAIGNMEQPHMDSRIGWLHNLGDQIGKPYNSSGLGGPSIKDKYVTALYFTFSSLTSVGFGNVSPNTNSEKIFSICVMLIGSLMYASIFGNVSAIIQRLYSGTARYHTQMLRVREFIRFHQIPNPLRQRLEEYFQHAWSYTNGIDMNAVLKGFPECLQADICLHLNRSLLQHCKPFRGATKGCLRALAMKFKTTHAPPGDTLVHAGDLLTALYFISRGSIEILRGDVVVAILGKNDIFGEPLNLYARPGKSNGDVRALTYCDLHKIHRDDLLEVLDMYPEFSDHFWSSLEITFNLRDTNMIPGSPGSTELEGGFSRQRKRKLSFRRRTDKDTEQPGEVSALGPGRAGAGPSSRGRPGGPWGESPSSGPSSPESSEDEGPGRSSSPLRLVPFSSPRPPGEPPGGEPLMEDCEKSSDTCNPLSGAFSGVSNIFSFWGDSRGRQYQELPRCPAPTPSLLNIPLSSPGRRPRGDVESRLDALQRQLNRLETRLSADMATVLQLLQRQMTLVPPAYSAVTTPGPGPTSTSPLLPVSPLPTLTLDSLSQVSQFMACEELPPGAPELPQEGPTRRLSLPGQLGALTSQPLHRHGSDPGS

Row | SMILES | hERG current change (%, negative = inhibition) at 10uM
1 | O=C(Cc1c[nH]c2ccccc12)NCc1ccncc1 | 8.17%
2 | CNCc1ccccc1OCC(=O)Nc1ccccc1OC | -14.1%
3 | CNS(=O)(=O)c1ccc(N=Cc2c(C)[nH]n(-c3ccc(C)cc3C)c2=O)cc1 | 15.6%
4 | COc1ccc(-c2csc3ncnc(N4CCN(S(=O)(=O)c5cccc(C(F)(F)F)c5)CC4)c23)cc1 | 4.22%
5 | O=C(Nc1cccc2ccccc12)c1cccc(F)c1 | 13%
6 | Clc1ncnc2c1oc1ccccc12 | 6.02%
7 | CCN(CC)CCN(C(=O)c1ccc(C(=O)c2ccccc2)cc1)c1nc2cc3c(cc2s1)OCO3.Cl | -43.8%
8 | CCCCN1C(=O)C(O)(c2ccccc2)c2cc(Br)ccc21 (stereo not drawn) | -0.8%
9 | OCC(O)C(O)C(O)C(O)c1nc2ccccc2[nH]1 (stereo not drawn) | -8.26%
10 | COc1cccc(C(=O)COc2ccc3c(C)c(Cc4ccccc4)c(=O)oc3c2)c1 | 14%
11 | CCNC(=O)CC1C(=O)N(c2ccc(F)cc2)C(=O)N1CCc1sccc1C (stereo not drawn) | -31.2%
12 | CCN(CC(=O)N1CCOCC1)S(=O)(=O)c1cc(Cl)ccc1Cl | -24.6%
13 | C=CCNC(=O)CN1CCN(Cc2ccc3c(c2)OCO3)CC1.Cl | 2.48%
14 | CCO[C@@H]1OC(C(=O)N2CCN(Cc3ccccc3)CC2)=C[C@H](c2coc3ccccc3c2=O)[C@H]1CCCO | -18.6%
15 | Cc1cc(C)c2c(N)c(C(=O)c3ccc(Cl)cc3Cl)sc2n1 | 1.01%
16 | CC(=O)C1=C(O)C(=O)N(CCNCCO)C1c1ccccc1 (stereo not drawn) | 5.73%
17 | CCOCCCNC(=O)CN1C(=O)COc2ccc(S(=O)(=O)N3CCCC3)cc21 | 21.9%
18 | O=C1c2oc3ccc(Cl)cc3c(=O)c2C(c2ccccn2)N1CCCN1CCOCC1 (stereo not drawn) | 1.95%
19 | CCN1c2ccccc2NC2N=C(OC)C(c3ccccc3)C21 (stereo not drawn) | 1.45%

Row | SMILES | hERG current change (%, negative = inhibition) at 10uM
20 | CCN(CC)C(=O)CCNS(=O)(=O)c1ccc(C)cc1 | 10.9%
21 | COc1ccc2c(c1)CC/C2=N\NC(=O)c1ccccc1 | -3.69%
22 | CCOc1ccc(C(=O)NC(=S)Nc2ccccc2N2CCOCC2)cc1Br | -0.723%
23 | COc1ccccc1CNC(=O)CCS(=O)(=O)c1cccs1 | 15.7%
24 | Cc1cccc(CCNS(=O)(=O)c2ccc3c(c2)NC(=O)CO3)c1 | 3.2%
25 | CCOC(=O)c1sc(NC(=O)CSc2n[nH]c(CC(C)C)n2)nc1C | -21.2%
26 | O=C(Nc1ccccc1)c1ncoc1-c1ccc(Cl)cc1 | 15.4%
27 | CC(C)OC(=O)CSc1nnc(-c2ccc(C(C)(C)C)cc2)n1N | -11.1%
28 | Cc1ccc(C)c(N(CC(=O)N2CCCC2)S(C)(=O)=O)c1 | 12.2%
29 | COc1cc(OC)c2c(c1)S(=O)(=O)C(c1ccccc1)=C2N | 19.3%
30 | O=C(NC(=S)Nc1cc([N+](=O)[O-])ccc1O)c1cccnc1 | 6.18%
31 | Cc1ccc(NC(=O)Nc2cnccn2)c(C)c1 | 13.8%
32 | O=C(NCCc1ccccc1)c1ccc2nccnc2c1 | 12.6%
33 | CCOC(=O)C(C)Sc1nnc(-c2ccccc2O)n1Cc1ccccc1 (stereo not drawn) | -19.6%
34 | O=C(N/N=C/c1ccc(Br)s1)Nc1ccccc1 | 4.13%
35 | CCCSc1cc(=O)n(-c2ccccc2)nc1C(=O)O | 15.7%
36 | O=C(CC1=NCCNC(c2ccccc2)C1)c1ccccc1O (stereo not drawn) | -46.6%
37 | Cc1ccc(CNC(=O)C2CCC(=O)N(Cc3ccc(Cl)cc3)C2)cc1F (stereo not drawn) | -63.6%
38 | Cc1sc2ncn(CC(=O)N3CCN(c4ccccn4)CC3)c(=O)c2c1S(=O)(=O)N1CCCCC1 | -36.7%

Row | SMILES | hERG current change (%, negative = inhibition) at 10uM
39 | CC(C)(C)c1ccc(-n2nc(C(N)=O)c(O)cc2=O)cc1 | 12.9%
40 | CC1(C)O[C@@H]2[C@H](O1)[C@@H](CO)O[C@H]2n1cnc2c(=O)[nH]cnc21 | 22.3%
41 | CCOc1ccc(/C=C/C(=O)Nc2ccc(C(N)=O)cc2)cc1OC | 1.76%
42 | CC(Sc1nc2ncc(Cl)cc2[nH]1)C(=O)NC1(C#N)CCCCC1 (stereo not drawn) | -0.999%
43 | Cc1cc(=O)[nH]c(N/N=C/C(C)c2ccccc2)n1 (stereo not drawn) | 7.54%
44 | Cc1ccc(S(=O)(=O)N2CCCN(C(=O)c3ccc(-n4cccn4)cc3)CC2)cc1 | -74.2%
45 | COc1ccc(C(=O)NCC(=O)OCC(=O)N2CCC(C)CC2)cc1OC | -1.82%
46 | COc1cccc(C2C(C(C)=O)=C(O)C(=O)N2CCc2c[nH]c3ccccc23)c1 (stereo not drawn) | -2.44%
47 | Cc1cc(Cl)ccc1OCCCC(=O)NCCN1C(=O)S/C(=C\c2cccnc2)C1=O | -49.9%
48 | Cc1ccc(NC(=S)C2=C(O)c3sccc3N(C)S2(=O)=O)cc1 | 10.4%
49 | CCOC(=O)C1CCN(C(=O)COc2ccc(Br)cc2)CC1 | -32.1%
50 | C=CCOC(=O)C(C#N)c1nc2ccccc2nc1N1CCC(C(=O)OCC)CC1 (stereo not drawn) | 1.86%
51 | CN1CCC(=O)N([C@H](CN=[N+]=[N-])c2ccccc2)CC1 | 6.65%
52 | Cn1ncc(Br)c1C(=O)N1CCCC1 | 19%
53 | CSCCCNC(=O)c1ccc(OC2CCN(C(=O)c3cccnc3)CC2)cc1 | -11.4%
54 | Cc1cccc(OCCC(=O)NCC(c2ccco2)N2CCCCC2)c1 (stereo not drawn) | -17.4%
55 | Cc1ccc(NC(=O)CN2C(=O)C3C4C=CC(C4)C3C2=O)cc1S(=O)(=O)N(C)C (stereo not drawn) | -9.66%
56 | COc1ccccc1C(=O)N(C)CC(=O)Nc1ccc(N2CCOCC2)cc1 | 2.83%
57 | COc1ccccc1Nc1ccc(C(=O)NC2CCCCC2)cn1 | -10.4%
